In PubChem BioAssay (NCATS):
The inconclusive results got no clear call from the source; some entries with a clear call stand among them for comparison. For some assays here: Potencies beside an inconclusive call are fits to weak or partial responses and may not hold up. The source made the active and inactive calls. Unless noted, the call rests on the fitted dose curve; in most records, active means well fitted curve in the direction sought with a large enough effect; inconclusive means small, poorly fitted or top-dose-only effect, or another doubt; inactive means no such curve, though single readings can be large; an effect the other way counts as inactive or inconclusive.

Tests used:
[1] = P-glycoprotein substrates identified in KB-8-5-11 adenocarcinoma cell line, qHTS therapeutic library screen (AID 1346987); further: nearly all actives have a fitted effect of over 65% in size
Summary of the method: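 KB-8-5-11, a colchicine-selected P-gp-overexpressing KB-3-1 subline, was grown without colchicine for the assay. Cells were seeded at 500 cells/well, dosed in concentration-response and incubated 72 h at 37 degree C, 5% CO2. Viability was read by CellTiter-Glo luminescence.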

[2] = qHTS of pediatric cancer cell lines to identify multiple opportunities for drug repurposing: Primary screen for SK-N-MC cells (AID 1347093); conditions: SK-N-MC viability, CellTiter-Glo luminescence, 48 h; activity change, negative = cytotoxic: at 46 µM (top of the series);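 on activity change, negative = cytotoxic: plate controls were DMSO neutral control for no effect and bortezomib for full effect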
Summary of the method: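 Metabolically active cells were quantified by ATP-dependent luminescence (CellTiter-Glo, 15 min at room temperature) following 48 h treatment. Cells had been plated at 500-1,000 per well and settled for 5 h beforehand.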

[3] = target: Cytochrome P450 2D6 (Homo sapiens) (UniProt P10635); assay: Cytochrome P450 family 2 subfamily D member 6 (CYP2D6) small molecule antagonists: luciferase biochemical (cell-free) qHTS assay (AID 1645840; active means well fitted curve in the direction sought with a large enough effect in the repeat runs; inconclusive means weak or mixed curves; inactive means no such curve, though single readings can be large; an effect the other way counts as inactive or inconclusive; further: nearly all actives have a fitted effect of over 55% in size)
Summary of the method: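 P450-Glo luminescent screen: recombinant CYP2D6 enzyme–proluciferin substrate mix preincubated with compound 10 min at room temperature, then NADPH regeneration added for 1 h at room temperature. Detection reagent added for 20 min; luciferin light read as relative luminescence units.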

[4] = target: Cytochrome P450 2C9 (Homo sapiens) (UniProt P11712); assay: Cytochrome P450 family 2 subfamily C member 9 (CYP2C9) small molecule antagonists: luciferase biochemical (cell-free) qHTS assay (AID 1645842; active means well fitted curve in the direction sought with a large enough effect in the repeat runs; inconclusive means weak or mixed curves; inactive means no such curve, though single readings can be large; an effect the other way counts as inactive or inconclusive; further: nearly all actives have a fitted effect of over 55% in size)
Summary of the method: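 Luminescence, after 20 min with luciferin detection reagent, reflected CYP2C9 turnover during a 1 h NADPH-driven reaction at 37C. Enzyme-substrate mix contained 0.4% bovine serum albumin and was preincubated with compound 10 min at room temperature.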

[5] = Primary qHTS for inhibitors of nuclear receptor binding SET domain protein 2 (NSD2) in an isogenic RCH-ACV NSD2 p.E1099K mutant (9B) (AID 1645876); further: nearly all actives have a fitted effect of over 70% in size
[6] = Primary qHTS for inhibitors of nuclear receptor binding SET domain protein 2 (NSD2) in an RCH-ACV wild type WT cells (2C) (AID 1645877); conditions: activity change, negative = cell killing: at 44.9 µM (top of the series) unless noted; further: nearly all actives have a fitted effect of over 70% in size
CRL-7250 = normal cell line; assay: Cytotoxic Profiling of Annotated Libraries Using Quantitative High-Throughput Screening (AID 1296008); conditions: Five cell lines viability, CellTiter-Glo ATP luminescence, 48-72 h; max response: stronger effect = lower value; further: nearly all actives have a fitted effect of over 60% in size; on max response: on the % scale 0 is the no-effect control and ±100 the full control effect
Summary of the method: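 Cells exposed to compounds for 48 or 72 hr at 37 degrees Celsius. Viability read as ATP-coupled luminescence with CellTiter-Glo after 10 min at room temperature.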

SKOV3 = assay: Primary qHTS to identify gynecologic anti-cancer compounds using libraries of approved drugs and bioactive compounds (AID 1345084); conditions: Gynecologic cancer cell panel viability, ATPlite luminescence, 48 h; series mostly up to 57.5 µM; further: nearly all actives have a fitted effect of over 55% in size; on activity change, negative = cytotoxicity: on the % scale 0 is the no-effect control and ±100 the full control effect
Summary of the method: (§1)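 Cells, 1,000 per well, were allowed to settle for 16 h at 37 C before compound addition. Five concentrations were tested for 48 h, and viability was read by ATPlite luminescence after 15 min at room temperature.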

[7] = Primary qHTS for small molecule stabilizers of the endoplasmic reticulum resident proteome: Secreted ER Calcium Modulated Protein (SERCaMP) assay (AID 1508630); conditions: SH-SY5Y GLuc-SERCaMP (Gaussia luciferase released on ER calcium loss) secretion, thapsigargin, luminescence; activity change, negative = inhibition: at 38.4 µM (top of the series) unless noted
Summary of the method: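 GLuc-SERCaMP-expressing SH-SY5Y cells, pretreated 16 h with compound, are challenged with thapsigargin to empty ER calcium stores; after 4 h, coelenterazine is added directly to the medium and luminescence is imaged.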

[8] = Primary fluorescence-based thiol-reactive (MSTI) qHTS assay for identification of artifact compounds. (AID 1845221);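 further: thiol-reactive compounds lower the probe fluorescence signal; nearly all actives have a fitted effect of over 65% in size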
Summary of the method: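 qHTS titration of compound; 4 uM MSTI, PBS pH 7.4, 2% DMSO; 1 h RT, dark; fluorescence 525/598 nm; normalized to Acetyl-MSTI and MSTI; 4-parameter Hill fit.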

Hek293T = assay: Primary qHTS to identify gynecologic anti-cancer compounds using libraries of approved drugs and bioactive compounds (AID 1345084); conditions: Gynecologic cancer cell panel viability, ATPlite luminescence, 48 h, control line for the selectivity index; activity change, negative = cytotoxicity: at 57.5 µM (top of the series) unless noted; further: nearly all actives have a fitted effect of over 55% in size; on activity change, negative = cytotoxicity: on the % scale 0 is the no-effect control and ±100 the full control effect
Summary of the method: as §1

PA-1 = assay: as above; conditions: Gynecologic cancer cell panel viability, ATPlite luminescence, 48 h; series mostly up to 57.5 µM
Summary of the method: as §1

C33A = assay: as above; conditions: Gynecologic cancer cell panel viability, ATPlite luminescence, 48 h; series mostly up to 57.5 µM
Summary of the method: as §1

CASKI = assay: as above; conditions: Gynecologic cancer cell panel viability, ATPlite luminescence, 48 h; series mostly up to 57.5 µM
Summary of the method: as §1

Tov-21-G = assay: as above; conditions: Gynecologic cancer cell panel viability, ATPlite luminescence, 48 h; activity change, negative = cytotoxicity: at 57.5 µM (top of the series) unless noted
Summary of the method: as §1

[9] = tested on: Zika virus NS2B-NS3 protease (unlinked complex); assay: Primary screen GU Rhodamine qHTS for Zika virus inhibitors: Unlinked NS2B-NS3 protease assay (AID 1347159); further: nearly all actives have a fitted effect of over 60% in size
Summary of the method: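 Percent inhibition derives from the 15-min fluorescence change (ex 480, em 540 nm), normalized to no-enzyme and no-inhibitor wells. Reactions contained 25 nM NS2B-NS3 complex and 1.5 microM substrate in 10 mM Tris-HCl pH 8.0.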

[10] = tested on: Zika virus NS2B-NS3 protease (linked construct); assay: Primary screen NINDS Rhodamine qHTS for Zika virus inhibitors (AID 1347160); conditions: activity change, negative = inhibition: at 57.1 µM (top of the series) unless noted; further: nearly all actives have a fitted effect of over 55% in size
Summary of the method: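 In 10 mM Tris-HCl pH 8.0 containing 0.01% Tween 20, linked NS2B-NS3 protease (25 nM final) is exposed to test compounds for 15 min. Cleavage of 1.5 microM Rhodamine110 substrate is tracked by fluorescence over 15 min.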

OV90 = assay: Primary qHTS to identify gynecologic anti-cancer compounds using libraries of approved drugs and bioactive compounds (AID 1345084); conditions: Gynecologic cancer cell panel viability, ATPlite luminescence, 48 h; series mostly up to 57.5 µM; further: nearly all actives have a fitted effect of over 55% in size; on activity change, negative = cytotoxicity: on the % scale 0 is the no-effect control and ±100 the full control effect
Summary of the method: as §1

CAOV3 = assay: as above; conditions: Gynecologic cancer cell panel viability, ATPlite luminescence, 48 h; activity change, negative = cytotoxicity: at 57.5 µM (top of the series)
Summary of the method: as §1
Potency means the concentration at half of the fitted maximal effect; tags describe the fitted curve by direction and shape.

Sequence of UniProt P10635 (P10635 whole entry, looked up): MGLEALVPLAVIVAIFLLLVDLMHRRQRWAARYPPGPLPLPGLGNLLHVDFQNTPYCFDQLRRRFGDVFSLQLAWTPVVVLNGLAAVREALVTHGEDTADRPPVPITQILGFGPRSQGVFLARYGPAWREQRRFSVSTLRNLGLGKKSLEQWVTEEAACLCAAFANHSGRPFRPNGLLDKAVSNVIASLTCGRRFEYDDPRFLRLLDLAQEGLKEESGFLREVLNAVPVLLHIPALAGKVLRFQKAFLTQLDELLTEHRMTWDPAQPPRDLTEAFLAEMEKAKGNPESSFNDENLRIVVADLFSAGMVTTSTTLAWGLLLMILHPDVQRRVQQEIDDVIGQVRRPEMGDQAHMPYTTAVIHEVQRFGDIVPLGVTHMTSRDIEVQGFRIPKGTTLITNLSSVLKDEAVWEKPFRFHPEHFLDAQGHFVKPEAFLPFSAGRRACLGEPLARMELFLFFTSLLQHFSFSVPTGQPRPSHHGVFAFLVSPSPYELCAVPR
Sequence of UniProt P11712 (P11712 whole entry, looked up): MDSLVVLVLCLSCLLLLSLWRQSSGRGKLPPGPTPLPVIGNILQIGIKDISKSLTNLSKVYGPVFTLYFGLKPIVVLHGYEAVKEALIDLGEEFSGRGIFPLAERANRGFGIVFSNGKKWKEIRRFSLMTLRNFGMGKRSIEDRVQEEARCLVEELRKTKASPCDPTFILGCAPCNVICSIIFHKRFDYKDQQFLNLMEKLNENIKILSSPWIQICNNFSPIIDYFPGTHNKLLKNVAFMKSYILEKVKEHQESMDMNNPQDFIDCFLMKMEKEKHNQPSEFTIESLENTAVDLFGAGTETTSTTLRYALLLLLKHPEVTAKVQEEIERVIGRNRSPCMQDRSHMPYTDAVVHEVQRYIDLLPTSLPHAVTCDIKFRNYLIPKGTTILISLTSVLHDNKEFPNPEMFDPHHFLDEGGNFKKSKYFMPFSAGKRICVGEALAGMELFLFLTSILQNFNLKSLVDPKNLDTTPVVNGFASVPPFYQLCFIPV

With `CCc1oc2ccccc2c1C(=O)c1cc(I)c(O)c(I)c1` the Potency [1] was inconclusive: 29.1 µM [inhibitor, single point], the Potency [2] was inconclusive: 33.5 µM [cytotoxic, single point] and the Potency [3] was inconclusive: 34.7 µM [inhibitor, single point]. The Potency [4] was active: 0.347 µM, the Potency [5] was inconclusive: 29.9 µM [inhibitor, single point] and the Potency [6] was inconclusive: 33.5 µM [inhibitor, single point]. The max response (CRL-7250) was inactive: -2.92% and the Potency (SKOV3) was inconclusive: 39.8 µM [cytotoxic, single point].

For `CN(C)CCC(c1ccccc1)c1ccccn1` (stereo unspecified), the Potency [2] was “inactive”, the Potency [7] was inconclusive: 11.2 µM [inhibitor, partial curve, poor fit] and the Potency [3] was inconclusive: 19.5 µM [inhibitor, single point]. For the same compound, the Potency [8] was inconclusive: 2.67 µM [inhibitor, full curve, poor fit], the Potency (CRL-7250) was inconclusive: 4.22 µM [inhibitor, single point] and the Potency (SKOV3) was “inactive”.

With `O=C(O)COCCN1CCN(C(c2ccccc2)c2ccc(Cl)cc2)CC1` (stereo unspecified) the Potency [1] was “inactive”, the Potency [2] was inconclusive: 26.4 µM [cytotoxic, single point] and the Potency (CRL-7250) was inconclusive: 5.31 µM [inhibitor, single point]. For the same compound, the Potency (Hek293T) was “inactive” and the Potency (PA-1) was “inactive”.

In the case of `CC(C)(O)CC[C@@H](O)[C@](C)(O)[C@H]1CC[C@@]2(O)C3=CC(=O)[C@@H]4C[C@@H](O)[C@@H](O)C[C@]4(C)[C@@H]3CC[C@]12C`, the Potency [2] is reported as inconclusive: 37.2 µM [cytotoxic, single point] and the Potency (CRL-7250) is reported as inconclusive: 37.2 µM [inhibitor, single point].

For `CC[C@@H]([C@H](C)O)n1ncn(-c2ccc(N3CCN(c4ccc(OC[C@@H]5CO[C@@](Cn6cncn6)(c6ccc(F)cc6F)C5)cc4)CC3)cc2)c1=O`, the Potency [2] was active: 11.9 µM, the Potency [7] was “inactive” and the Potency [5] was inconclusive: 33.5 µM [inhibitor, single point]. For the same compound, the Potency [6] was inconclusive: 33.5 µM [inhibitor, single point], the Potency (CRL-7250) was inconclusive: 33.5 µM [inhibitor, single point] and the Potency (C33A) was active: 11.2 µM. The Potency (CASKI) was inconclusive: 10 µM [cytotoxic, partial curve, poor fit], the Potency (Hek293T) was inconclusive: 22.4 µM [cytotoxic, single point] and the Potency (PA-1) was inconclusive: 39.8 µM [cytotoxic, single point]. The Potency (SKOV3) was active: 15.8 µM and the Potency (Tov-21-G) was inconclusive: 39.8 µM [cytotoxic, single point].

With `C[C@H](CCC(=O)O)[C@H]1CC[C@H]2[C@@H]3C[C@H](O)[C@@H]4C[C@H](O)CC[C@]4(C)[C@H]3CC[C@]12C` the Potency [9] was inconclusive: 31.6 µM [inhibitor, single point], the Potency [10] was inconclusive: 20 µM [inhibitor, single point] and the Potency (CRL-7250) was inconclusive: 2.91 µM [inhibitor, partial curve, poor fit]. For the same compound, the Potency (C33A) was “inactive” and the Potency (PA-1) was “inactive”.

With `CC1=CCC(O)C2(C)CCC3C(C)C(=O)OC3C12` (stereo unspecified) the Potency [1] was “inactive”, the Potency [10] was “inactive” and the max response (CRL-7250) was inactive: -3.96%. For the same compound, the Potency (C33A) was inconclusive: 14.1 µM [rising, partial curve, poor fit], the Potency (OV90) was “inactive” and the Potency (Tov-21-G) was “inactive”.

For `C/C(=C\CCC(C)(C)O)CCO[C@@H]1O[C@H](CO[C@@H]2O[C@@H](C)[C@H](O)[C@@H](O)[C@H]2O)[C@@H](O)[C@H](O)[C@H]1O`, the Potency [9] was inconclusive: 31.6 µM [inhibitor, partial curve, poor fit], the Potency [8] was inconclusive: 7.33 µM [inhibitor, partial curve, poor fit] and the outcome (CRL-7250) was “inactive”. The Potency (C33A) was inconclusive: 20 µM [cytotoxic, single point] and the Potency (SKOV3) was inconclusive: 17.8 µM [rising, single point].

In the case of `O=C(O)[C@H](CC(=O)N1C[C@H]2CCCC[C@H]2C1)Cc1ccccc1`, the Potency [10] is reported as “inactive”, the Potency [3] is reported as “inactive” and the max response (CRL-7250) is reported as inactive: -6.27%. The Potency (C33A) was “inactive” and the Potency (Tov-21-G) was “inactive”.

With `COC(=O)C1=COC(O[C@@H]2O[C@H](CO)[C@@H](O)[C@H](O)[C@H]2O)/C(=C\COC(=O)c2ccc(OC3OC(CO)C(O)C(O)C3O)c(OC)c2)C1CC(=O)OCCc1ccc(O)cc1` (stereo partly specified) the max response (CRL-7250) was inactive: -6.94%, the activity change, negative = cytotoxicity (C33A) was inactive: 7.7% [at 11.6 µM] and the Potency (SKOV3) was inconclusive: 7.94 µM [rising, single point].

In the case of `N#CC1C(=O)Nc2scc(-c3ccc(-c4ccccc4O)cc3)c2C1=O` (stereo unspecified), the Potency [9] is reported as active: 2.51 µM, the Potency [10] is reported as active: 3.16 µM and the Potency [3] is reported as inconclusive: 37.9 µM [inhibitor, single point]. For the same compound, the Potency [4] was inconclusive: 21.3 µM [inhibitor, partial curve, poor fit], the Potency [5] was “inactive” and the max response (CRL-7250) was inactive: -4.61%. The Potency (C33A) was “inactive”.

With `C=CC(C)(C)c1[nH]c2cc3c(cc2c1CC1NC(=O)C2CCCN2C1=O)C=CC(C)(C)O3` (stereo unspecified) the Potency [9] was “inactive”, the Potency [5] was “inactive” and the Potency [6] was “inactive”. The Potency [8] was inconclusive: 1.46 µM [inhibitor, full curve], the Potency (CRL-7250) was inconclusive: 7.96 µM [inhibitor, single point] and the Potency (CAOV3) was “inactive”. The Potency (OV90) was “inactive” and the Potency (Tov-21-G) was “inactive”.
